Data from the RNAGym collection of RNA variant scans (doi:10.1101/gad.245936.114).
Variants at the floor of the assay are shown more often than the library holds them.

B1: tRNA (parent)
chain: CUCUCGGUAGCCAAGUUGGUUUAAGGCGCAAGACUUUAAUUUAUCACUACGAAAUCUUGAGAUCGGGCGUUCGACUCGCCCCCGGGAGAUUUUUUCCUCGAGCAA

Variants of: B1
Test: nonsense suppression (GFP-seq) (ratio to wild type); higher = more function; SUP4oc tRNA, yeast GFP reporter sort-seq
Procedure, shortened: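 Yeast were grown in raffinose/galactose medium with 80 mg/L adenine, each strain bearing a genome-integrated ochre-suppressor tRNA variant from a ~3% random-mutation library, a galactose-driven GFP ochre reporter, and RFP. After sorting into GFP/RFP bins, every bin was sequenced on an Illumina platform at phred ≥30. The GFPSEQ value, a measure of nonsense suppression, is the weighted bin median GFP/RFP relative to the unmutated parent tRNA, using each variant's estimated cell share per bin as the weight. Only variants with ≥100 reads and ≥30 cells were included.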

Point of comparison: U20A C75G, nonsense suppression 0.473. Against it:
- G19U A31G — lower, ≤ 0.026
- G19U A31G A33U G69C — lower, ≤ 0.026
- G19U A33C C56A U57C C64A C75A — lower, ≤ 0.026
- G19U A33U — lower, ≤ 0.026
- G19U A54C — lower, ≤ 0.026
- G19U A54G — lower, ≤ 0.026
- G19U A62C C68G — lower, ≤ 0.026
- G19U A62U G65A A87C — lower, ≤ 0.026
- G19U A74G — lower, ≤ 0.026
- G19U A87C — lower, ≤ 0.026
- G19U C27U — lower, ≤ 0.026
- G19U C29A U63C C72G — lower, ≤ 0.026
- G19U C29U C72G A89G — lower, ≤ 0.026
- G19U C34A A54U — lower, ≤ 0.026
- G19U C34G C68U G73A A89C — lower, ≤ 0.026
- G19U C56A — lower, ≤ 0.026
- G19U C56G U58C — lower, ≤ 0.026
- G19U C64U G65C — lower, ≤ 0.026
- G19U C72A — lower, ≤ 0.026
- G19U C72A G88C — lower, ≤ 0.026
- G19U C75U C82U — lower, ≤ 0.026
- G19U C77U G85U — lower, ≤ 0.026
- G19U C79U G84C — lower, ≤ 0.026
- G19U C82A G86C — lower, ≤ 0.026
- G19U G25U C56U — lower, ≤ 0.026
- G19U G26A U70A — lower, ≤ 0.026
- G19U G26C A30G A74U — lower, ≤ 0.026
- G19U G28A C56G — lower, ≤ 0.026
- G19U G28C — lower, ≤ 0.026
- G19U G28U U35G G88U — lower, ≤ 0.026
- G19U G61A U63C — lower, ≤ 0.026
- G19U G61C — lower, ≤ 0.026
- G19U G66C G85C — lower, ≤ 0.026
- G19U G73U — lower, ≤ 0.026
- G19U G78C — lower, ≤ 0.026
- G19U G85A — lower, ≤ 0.026
- G19U U20A U35A G61C — lower, ≤ 0.026
- G19U U20C G59A — lower, ≤ 0.026
- G19U U21G — lower, ≤ 0.026
- G19U U21G U22C G66U — lower, ≤ 0.026
- G19U U22C — lower, ≤ 0.026
- G19U U35G G69C — lower, ≤ 0.026
- G19U U55C U63A — lower, ≤ 0.026
- G19U U55G — lower, ≤ 0.026
- G19U U57C — lower, ≤ 0.026
- G19U U57C U63G C82U G88U — lower, ≤ 0.026
- G19U U57G G86U — lower, ≤ 0.026
- G19U U58G — lower, ≤ 0.026
- G19U U63C C64G — lower, ≤ 0.026
- G19U U70A C80A — lower, ≤ 0.026
- G19U U71A — lower, ≤ 0.026
- G19U U76G — lower, ≤ 0.026
- U20A A23U — lower, ≤ 0.026
- U20A A24C — lower, 0.192
- U20A A24C G65C C68U — lower, ≤ 0.026
- U20A A24G C29G — lower, ≤ 0.026
- U20A A24U U63A — lower, ≤ 0.026
- U20A A30C U63A C83G — lower, ≤ 0.026
- U20A A31U — lower, ≤ 0.026
- U20A A33C — lower, ≤ 0.026
- U20A A33U G84U — lower, ≤ 0.026
- U20A A60C C80A — lower, ≤ 0.026
- U20A A60U G61A C72U G85U G88A — lower, ≤ 0.026
- U20A C34G C68A — lower, ≤ 0.026
- U20A C34G G66A — lower, ≤ 0.026
- U20A C75G G85U — lower, 0.154
- U20A C75U A89U — lower, ≤ 0.026
- U20A C83G — lower, ≤ 0.026
- U20A G25C A87G — lower, ≤ 0.026
- U20A G26C U63A — lower, ≤ 0.026
- U20A G28A A62C — lower, ≤ 0.026
- U20A G28C G65A — lower, ≤ 0.026
- U20A G28C U35C A54C C64U — lower, ≤ 0.026
- U20A G28U C34U A60G G66U — lower, ≤ 0.026
- U20A G28U G59U — lower, ≤ 0.026
- U20A G32C A33G C34A — lower, ≤ 0.026
- U20A G59A — lower, ≤ 0.026
- U20A G59C G86U — lower, ≤ 0.026
- U20A G59U — lower, ≤ 0.026
- U20A G59U U76C — lower, ≤ 0.026
- U20A G61A U76A — lower, ≤ 0.026
- U20A G65A — lower, ≤ 0.026
- U20A G65C G69C G73A C75G — lower, ≤ 0.026
- U20A G66U — lower, ≤ 0.026
- U20A G84C — lower, ≤ 0.026
- U20A G84U A89U — lower, ≤ 0.026
- U20A U21C U71C — lower, ≤ 0.026
- U20A U55C C82G — lower, ≤ 0.026
- U20A U58A G67C A89G — lower, ≤ 0.026
- U20A U58A G67C A89U — lower, ≤ 0.026
- U20A U63C — lower, 0.191
- U20A U70C — lower, ≤ 0.026
- U20A U71G — lower, ≤ 0.026
- U20A U76C G85U — lower, ≤ 0.026
- U20A U76G — lower, ≤ 0.026
- U20C A23G C29U A54U — lower, ≤ 0.026
- U20C A23U A24U A62U — lower, ≤ 0.026
- U20C A23U U70C — lower, ≤ 0.026
- U20C A30C C56G A60C C81A G85A G88C — lower, ≤ 0.026
- U20C A30G A62U — lower, ≤ 0.026
- U20C A30G U35C — lower, ≤ 0.026
- U20C A31G — lower, 0.0336
- U20C A31U G88A — lower, ≤ 0.026
- U20C A33C — lower, ≤ 0.026
- U20C A33U C72U C79G A87G — lower, ≤ 0.026
- U20C A54U — higher, 0.62
- U20C A54U U57C — lower, ≤ 0.026
- U20C A62C C75U C81A — lower, ≤ 0.026
- U20C C29A C72U — lower, ≤ 0.026
- U20C C29G — lower, ≤ 0.026
- U20C C29G A31G — lower, ≤ 0.026
- U20C C34A U76G — lower, ≤ 0.026
- U20C C56G — lower, ≤ 0.026
- U20C C68A A74G — lower, ≤ 0.026
- U20C C72U C82A — lower, ≤ 0.026
- U20C C79U G84U — lower, ≤ 0.026
- U20C C81U — lower, ≤ 0.026
- U20C C82G — lower, ≤ 0.026
- U20C G25U C27G G85C — lower, ≤ 0.026
- U20C G25U G65C — lower, ≤ 0.026
- U20C G28A U55G U63C — lower, ≤ 0.026
- U20C G28U G88A — lower, ≤ 0.026
- U20C G32C — lower, ≤ 0.026
- U20C G32U C79G — lower, ≤ 0.026
- U20C G32U G67U — lower, ≤ 0.026
- U20C G59A — lower, 0.0894
- U20C G65C U76C G85U — lower, ≤ 0.026
- U20C G65U G66C — lower, ≤ 0.026
- U20C G66C — lower, ≤ 0.026
- U20C G66C G78U — lower, ≤ 0.026
- U20C G67A U70A C77G — lower, ≤ 0.026
- U20C G69A — lower, ≤ 0.026
- U20C G69C — lower, ≤ 0.026
- U20C G78U — lower, 0.0456
- U20C G84U G86C — lower, ≤ 0.026
- U20C U21C — higher, 1.15
- U20C U21G C27U G84C — lower, ≤ 0.026
- U20C U21G G61A — lower, ≤ 0.026
- U20C U22G A30C A54G C56A G61C G85A — lower, ≤ 0.026
- U20C U22G G59U — lower, ≤ 0.026
- U20C U35A — lower, ≤ 0.026
- U20C U35A U57C G59A C80U — lower, ≤ 0.026
- U20C U55C — lower, 0.0996
- U20C U55C A62G G65U — lower, ≤ 0.026
- U20C U57C U58G G61C — lower, ≤ 0.026
- U20C U58A G73A C82U — lower, ≤ 0.026
- U20C U58A U71A — lower, ≤ 0.026
- U20C U63C — lower, ≤ 0.026
- U20C U76A — lower, ≤ 0.026
- U20G A23C C56A — lower, ≤ 0.026
- U20G A23C C77U C79G — lower, ≤ 0.026
- U20G A23C G65A — lower, ≤ 0.026
- U20G A23U C77G — lower, ≤ 0.026
- U20G A24C G61A A87U — lower, ≤ 0.026
- U20G A24U A30U G86C — lower, ≤ 0.026
- U20G A24U C56A A62C C77U — lower, ≤ 0.026
- U20G A24U U55C U57G — lower, ≤ 0.026
- U20G A30C A60G — lower, ≤ 0.026
- U20G A30C C64G G73U — lower, ≤ 0.026
- U20G A30G A54C C77A — lower, ≤ 0.026
- U20G A30G U71A — lower, ≤ 0.026
- U20G A30U — lower, 0.444
- U20G A31C — lower, ≤ 0.026
- U20G A31U G84U — lower, ≤ 0.026
- U20G A54G C77A — lower, ≤ 0.026
- U20G A54G G73U G84C — lower, ≤ 0.026
